# Assay results published in the BET-seq Pho4 binding data (Le et al. 2018).
# This is one part of the list. These are noisy estimates, calculated here from bound and input reads.
# Molecular target: T1, Pho4 (S. cerevisiae) (UniProt P07270)
# T1 sequence: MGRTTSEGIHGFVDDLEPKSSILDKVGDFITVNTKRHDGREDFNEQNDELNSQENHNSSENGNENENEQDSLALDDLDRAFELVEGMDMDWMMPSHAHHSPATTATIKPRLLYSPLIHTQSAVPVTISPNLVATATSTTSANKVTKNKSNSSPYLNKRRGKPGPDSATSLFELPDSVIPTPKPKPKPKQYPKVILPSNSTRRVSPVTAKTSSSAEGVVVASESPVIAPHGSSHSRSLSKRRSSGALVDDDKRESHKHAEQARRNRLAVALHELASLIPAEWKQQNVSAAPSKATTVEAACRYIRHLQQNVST
# Assay: relative binding free energy (BET-seq); higher = weaker binding
# Conditions: reference: library average
row,Sequence,relative binding free energy
1,GTGTGCACGTGGGGGT,-0.1 kcal/mol
2,GGTTGCACGTGACGTA,0.04 kcal/mol
3,CCATTCACGTGGTGTG,0.33 kcal/mol
4,TGAGGCACGTGACGCG,0.12 kcal/mol
5,GTAACCACGTGTGTTT,-0.03 kcal/mol
6,TGGAACACGTGGGAAA,0.25 kcal/mol
7,GGCTCCACGTGGTGAG,0.08 kcal/mol
8,TACGGCACGTGGAGGT,-0.14 kcal/mol
9,ATTATCACGTGTCGGG,0.2 kcal/mol
10,ATGTGCACGTGTATGC,-0.11 kcal/mol
11,TGCGGCACGTGCAGGG,-0.06 kcal/mol
12,TTATACACGTGAATTT,0.25 kcal/mol
13,TTTGTCACGTGGATAA,0.1 kcal/mol
14,AGACGCACGTGTATGG,0 kcal/mol
15,TGGAGCACGTGTATGA,-0.13 kcal/mol
16,AGCTGCACGTGGTTGT,-0.11 kcal/mol
17,TAATTCACGTGTGTGA,0.35 kcal/mol
18,GTTGGCACGTGAGAGC,0.19 kcal/mol
19,GTTTTCACGTGCCGAG,0.38 kcal/mol
20,TAGTGCACGTGTTTTC,0.1 kcal/mol
21,GAGCGCACGTGAGGTA,0.22 kcal/mol
22,TGTATCACGTGTACTT,0.01 kcal/mol
23,CGTTACACGTGTATGG,0 kcal/mol

row,Sequence,relative binding free energy
1,TTATTCACGTGGAGCG,0.24 kcal/mol
2,AAGGTCACGTGAGTAA,0.33 kcal/mol
3,GAAGACACGTGGTGTC,0.1 kcal/mol
4,CGTTGCACGTGATTAT,0.06 kcal/mol
5,CGAAGCACGTGGGAGG,-0.21 kcal/mol
6,AGGGTCACGTGGGTGG,0.06 kcal/mol
7,GGCGTCACGTGGGGTC,0.01 kcal/mol
8,ATGGTCACGTGGTCTA,0.01 kcal/mol
9,GTTTTCACGTGAGCCT,0.37 kcal/mol
10,GTTGCCACGTGGGGAG,-0.17 kcal/mol
11,TGTGTCACGTGTGGCA,0.1 kcal/mol
12,TCAATCACGTGGAGGG,0.12 kcal/mol
13,TAAAACACGTGAGGAG,0.47 kcal/mol
14,TGTGGCACGTGGAAAG,-0.11 kcal/mol
15,GAGTTCACGTGGTTGA,0.23 kcal/mol
16,AGATGCACGTGGTACT,-0.05 kcal/mol
17,AAGTACACGTGAGAGG,0.38 kcal/mol
18,AGCGGCACGTGCGGGC,-0.28 kcal/mol
19,CGAGTCACGTGGGGCA,-0.04 kcal/mol
20,TGGAACACGTGGTGAG,-0.07 kcal/mol
21,GTTAGCACGTGCCGGG,0.01 kcal/mol
22,TATAGCACGTGTTGCT,-0.18 kcal/mol
23,ATATGCACGTGGCGTT,-0.15 kcal/mol

row,Sequence,relative binding free energy
1,TGTTACACGTGAAGGG,0.36 kcal/mol
2,CGTTTCACGTGCTTAG,0.22 kcal/mol
3,TAGAGCACGTGATGTA,0.06 kcal/mol
4,AGCGTCACGTGGTGCA,-0.03 kcal/mol
5,AACGACACGTGGGGTT,-0.07 kcal/mol
6,GTAGCCACGTGGGCGT,-0.04 kcal/mol
7,TGTATCACGTGGGTGG,0.05 kcal/mol
8,GTGTTCACGTGCAAGT,0.3 kcal/mol
9,GCAGTCACGTGAAGGG,0.21 kcal/mol
10,GTCTTCACGTGTGATT,0.36 kcal/mol
11,GGGCACACGTGATAGT,0.24 kcal/mol
12,AGGTGCACGTGCAGTT,0.03 kcal/mol
13,TTTGTCACGTGTCATG,0.07 kcal/mol
14,TGTCACACGTGATGTA,0.19 kcal/mol
15,GGGGTCACGTGTAGGC,0.24 kcal/mol
16,GGGTGCACGTGTATAG,0.02 kcal/mol
17,TTGTGCACGTGTACTA,-0.08 kcal/mol
18,CATGGCACGTGGGACG,-0.18 kcal/mol
19,TTTAACACGTGATTGT,0.17 kcal/mol
20,ATTGCCACGTGGTATG,-0.17 kcal/mol
21,GAATGCACGTGGGTGC,-0.18 kcal/mol
22,GGGTTCACGTGTGAAG,0.31 kcal/mol
23,AGGCGCACGTGGGTAT,-0.12 kcal/mol

row,Sequence,relative binding free energy
1,GTTGCCACGTGGGGCA,-0.31 kcal/mol
2,TTTGTCACGTGAGGTC,0.15 kcal/mol
3,TGGGACACGTGATGTC,0.07 kcal/mol
4,TGCAGCACGTGAGTTT,0.3 kcal/mol
5,GAGTTCACGTGTGCGA,0.37 kcal/mol
6,CGCTGCACGTGGAGGT,-0.13 kcal/mol
7,TTTGCCACGTGTATGG,-0.03 kcal/mol
8,GTACACACGTGGGGAG,-0.1 kcal/mol
9,TCTGGCACGTGGGTTC,-0.12 kcal/mol
10,TGCGGCACGTGTTGGA,-0.23 kcal/mol
11,GTAGACACGTGGAAGT,-0.04 kcal/mol
12,GTTTACACGTGGCGGG,0.24 kcal/mol
13,CATCTCACGTGTGGGT,0.21 kcal/mol
14,ATTGGCACGTGTGCGT,-0.04 kcal/mol
15,GTTGCCACGTGTGGTA,0 kcal/mol
16,TGGGCCACGTGGAAGA,0.07 kcal/mol
17,GTAATCACGTGTTAGA,0.07 kcal/mol
18,TAGGCCACGTGTGTTT,-0.01 kcal/mol
19,TTTATCACGTGGCTTC,0.26 kcal/mol
20,CGGTGCACGTGGGCAT,-0.17 kcal/mol
21,TTAAACACGTGATTTG,0.09 kcal/mol
22,GTAGCCACGTGTGGGC,-0.03 kcal/mol
23,CTAGTCACGTGTAAGG,0.13 kcal/mol

row,Sequence,relative binding free energy
1,GTTTTCACGTGCTTGA,0.36 kcal/mol
2,ATTTTCACGTGCCGTT,0.21 kcal/mol
3,GGGGGCACGTGACGAT,0.06 kcal/mol
4,AGGAGCACGTGAAGGG,0.31 kcal/mol
5,ATTTGCACGTGGGAGC,-0.03 kcal/mol
6,TGTGTCACGTGCGCAG,-0.16 kcal/mol
7,CTTCGCACGTGGCGGG,-0.14 kcal/mol
8,AGTTGCACGTGGGACC,-0.02 kcal/mol
9,TTGTGCACGTGGCATT,-0.28 kcal/mol
10,ATCTTCACGTGCGGTG,0.18 kcal/mol
11,CGTTTCACGTGTTGAG,0.24 kcal/mol
12,TTTTACACGTGTGGCT,0.17 kcal/mol
13,TTGGGCACGTGATAAA,-0.09 kcal/mol
14,GGGACCACGTGTATGT,0 kcal/mol
15,GGTTTCACGTGTTACT,0.33 kcal/mol
16,TAGGACACGTGTTATA,-0.05 kcal/mol
17,GGAATCACGTGAGTAT,0.51 kcal/mol
18,CTGTTCACGTGTGGCA,0.2 kcal/mol
19,AGGGGCACGTGATTGG,-0.05 kcal/mol
20,GTGACCACGTGATTGT,0.29 kcal/mol
21,CGGGCCACGTGGTGCG,-0.16 kcal/mol
22,AGTGCCACGTGAGGTA,0.17 kcal/mol
23,TTCGTCACGTGTCAGG,0.07 kcal/mol
